This is an account of results in PubChem BioAssay AID488969 (Vanderbilt High Throughput Screening Facility, 2010).

Over roughly 110,000 compounds, “z-score” has its median near -0.1; the highest 2% begin near 2. The list shows a part of the results. Calls of active or inactive are those of the source.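 How the source made its calls: active means z-score in the third read window above 3 or below -3; inactive means the rest.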

In the assay the target is Metabotropic glutamate receptor 8 (Rattus norvegicus) (UniProt P70579). Put plainly: mGluR8 Gi/Go-coupled signaling modulation – cell-based, rat, thallium flux, HTS, primary screen (AID 488969). To be noted: HEK293 rat mGluR8, GIRK (G protein-gated inwardly rectifying potassium channel) thallium flux, FluoZin2; at 10 µM; stronger effect = higher value; submaximal glutamate (EC20) added with thallium.
Sequence of UniProt P70579 (P70579 whole entry, looked up): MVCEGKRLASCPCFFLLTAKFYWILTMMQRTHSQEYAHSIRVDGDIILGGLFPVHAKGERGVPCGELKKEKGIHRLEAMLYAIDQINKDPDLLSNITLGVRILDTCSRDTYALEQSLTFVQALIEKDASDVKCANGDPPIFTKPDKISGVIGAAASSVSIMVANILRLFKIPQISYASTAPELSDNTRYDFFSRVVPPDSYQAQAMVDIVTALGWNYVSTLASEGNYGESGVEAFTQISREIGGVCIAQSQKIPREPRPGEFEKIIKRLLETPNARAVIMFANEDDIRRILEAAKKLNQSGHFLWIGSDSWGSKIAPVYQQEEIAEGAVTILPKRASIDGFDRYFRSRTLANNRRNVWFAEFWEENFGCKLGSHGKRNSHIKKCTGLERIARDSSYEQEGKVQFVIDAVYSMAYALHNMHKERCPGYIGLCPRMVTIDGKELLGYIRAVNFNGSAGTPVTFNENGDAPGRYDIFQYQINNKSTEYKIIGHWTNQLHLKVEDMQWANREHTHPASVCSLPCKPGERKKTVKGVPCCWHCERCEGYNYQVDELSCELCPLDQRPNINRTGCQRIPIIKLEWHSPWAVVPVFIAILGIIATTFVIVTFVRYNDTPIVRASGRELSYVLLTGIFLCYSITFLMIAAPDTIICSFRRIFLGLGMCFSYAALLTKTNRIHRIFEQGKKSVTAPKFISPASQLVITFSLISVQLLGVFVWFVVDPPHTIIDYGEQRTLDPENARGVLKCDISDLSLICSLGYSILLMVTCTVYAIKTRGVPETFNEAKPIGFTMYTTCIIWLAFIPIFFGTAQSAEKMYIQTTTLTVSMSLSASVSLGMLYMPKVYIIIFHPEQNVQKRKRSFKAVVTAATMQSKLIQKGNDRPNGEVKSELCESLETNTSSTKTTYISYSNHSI
Regarding `Cc1[nH]n(-c2cccc(Cl)c2)c(=O)c1/C=N/n1c(C)nc2ccccc2c1=O`, the z-score worked out at 0.412.

In turn, `COCCOC(=O)C1=C(C)Nc2ncnn2C1c1ccc(F)cc1` (configuration not stated) showed a z-score of -0.249.

`O=C(NCCCN1CCOCC1)c1ccc(Sc2ccccc2Cl)c([N+](=O)[O-])c1` displayed a z-score of -1.05.

As to `NC(=O)c1nsc(C(=O)N(CC(=O)NCc2ccco2)c2ccccc2F)c1N`, the z-score is -0.172.

Turning to `CC(=O)Nc1ccc(N2C(C(C)=O)=NN(c3ccccc3)C2c2cccs2)cc1` (configuration not stated), the z-score is -0.489.

On to `O=C(CCC(=O)OCC(=O)c1ccc(Cl)cc1)NC1CCCCC1`, for which the z-score is -0.041.

Regarding `O=C1C2C3c4ccccc4C(c4ccccc43)C2C(=O)N1c1nc(-c2ccccc2)cs1` (configuration not stated), the z-score was 0.0024.

`O=C(CCCC(=O)OCC(Cl)=C(Cl)Cl)Nc1cccc2ccccc12` had a z-score of -0.124.

In turn, `Cc1c(CN(C)C(=O)/C=C/c2ccc([N+](=O)[O-])cc2)cnn1C` gave a z-score of -0.304.

Compound `Cc1ccc(N2CC(C(=O)Nc3nnc(C(C)C)s3)CC2=O)cc1` (configuration not stated) registered a z-score of -0.0775.

In turn, `COc1ccc2sc(NC(=O)CC(C)C)nc2c1` registered a z-score of -0.234.

The compound `Cc1c(C(=O)NCC2COc3ccccc3O2)oc2ccc(S(=O)(=O)N(C)C3CCCCC3)cc12` (configuration not stated) gave a z-score of -0.0918.

Consider `O=[N+]([O-])c1ccc(N2CCCCC2)c(Cl)c1N1CCCCC1`, for which the z-score is -0.34.

`Cc1ccc(-c2nn(-c3ccccc3)cc2/C=N/NC(=O)c2ccc3c(c2)OCO3)cc1` came in with a z-score of -0.115.

For the compound `Cc1ccc2c(Cl)cc(Cl)c(OCC(=O)Nc3cc(S(=O)(=O)N(C)C)ccc3C)c2n1`, the z-score is -0.0675.

In the case of `Cc1ccc(C(=O)C(OC(=O)CN2C(=O)c3ccccc3C2=O)c2ccccc2)cc1` (configuration not stated), the z-score is -0.46.

For `CC(C)NC(=O)c1ccc(OC2CSC2)cc1`, the z-score amounted to 0.0666.

With `CC(C)(C)C1CCc2[nH]nc(C(=O)O)c2C1` (configuration not stated), the z-score was active: -3.76.

Compound `CCn1c(SCc2nc3ccccc3c(=O)[nH]2)nnc1-c1ccncc1` gave a z-score of -0.193.

The compound `Cc1ccccc1-c1nnc(Cc2ccccc2)o1` came in with a z-score of -0.211.

For the compound `Nc1c2c(nc3ccc(Br)cc13)N(c1ccccc1)CC2`, the z-score is -1.03.

Compound `CC1CCCCN1C(=O)/C(=C\c1ccccc1)c1ccccc1` (configuration not stated) registered a z-score of -0.424.

Take `CC(=O)Nc1ccc(OC(=O)c2cc3cc(Br)cc(Br)c3oc2=O)cc1`: the z-score is -0.128.

With `O=C1OC(c2ccccc2)c2ccc3ccccc3c21` (configuration not stated), the z-score was -0.00828.

Compound `O=C(c1ccc(-c2ccccc2)cc1)N1CCC(C(=O)N2CCCC2)CC1` came in with a z-score of -0.187.

Turning to `Cc1ccc(S(=O)(=O)N(Cc2ccc(Cl)cc2)c2ccccc2C(=O)NCc2cccnc2)cc1`, the z-score is 0.0489.

Regarding `CC1=CC(c2ccccc2)NC(=S)N1` (configuration not stated), the z-score was -0.113.

With `Cc1nnc(NCCN2CCOCC2)[nH]c1=O`, the z-score is -0.109.

Consider `COc1ccc(-c2nc3oc4cc(OC)ccc4c(=O)c3c(=O)n2Cc2ccco2)cc1`, for which the z-score came out at 0.296.

In turn, `CC(C)[C@H](Nc1nc(-c2ccccc2)nc2c1oc1ccccc12)C(=O)O` had a z-score of -0.596.

The compound `CC(CCc1ccccc1)NC(=O)CSc1nc(N)cc(N)n1` (configuration not stated) registered a z-score of -0.00376.

`Cn1nc(C(F)(F)F)c2cc(NC(=O)OCC(C)(C)C)sc21` registered a z-score of -1.03.

`Brc1ccc(Nc2nc3ccccc3n3nnnc23)cc1` returned a z-score of -0.0764.

With `COC(=O)C1=C(C)N(C)C(=S)NC1c1ccc(Cl)cc1` (configuration not stated), the z-score was -1.56.

With `O=C(COC(=O)c1ccncc1)Nc1cccc(Cl)c1`, the z-score was -0.157.

The compound `COC(=O)/C(=N\Nc1ccccc1)Sc1nnc(-c2ccc(OC)cc2)n1C` showed a z-score of -0.153.

With `CCn1c(SCC(=O)NC(=O)NCc2ccco2)nnc1-c1cccs1`, the z-score was -0.133.

In turn, `Cc1ccsc1C(=O)N/N=C/c1ccc2c(c1)OCO2` had a z-score of -0.388.

Turning to `COc1ccc(NC2C=CS(=O)(=O)C2)cc1` (configuration not stated), the z-score was -0.312.

For the compound `CCNS(=O)(=O)c1ccc(Br)c(OC)c1`, the z-score was found to be 0.22.

In turn, `CCCCc1c(O)nc(N2CCN(Cc3ccccc3)CC2)[nH]c1=O` came in with a z-score of -0.0966.

Regarding `C=CCn1cc(C(=O)NCc2cccnc2)c(=O)c2cc(S(=O)(=O)N(CC)CC)ccc21`, the z-score is -0.0891.

In turn, `C=CCNC(=O)c1cc(Cl)ccc1Cl` had a z-score of 0.018.

In turn, `CCC(C)C(NC(=O)c1ccccc1NC(=O)c1ccccc1)C(=O)N1CCOCC1` (configuration not stated) came in with a z-score of -0.0703.

`CC(C)CCC1CC(CSC(=N)N)OC1=O` (configuration not stated): the z-score is -0.229.

Consider `CNC(=S)Nc1ccc2nc(C)c(C)nc2c1`, for which the z-score is -0.0637.

In the case of `Cc1ccc(-n2ncc3c(N4CCN(c5ccc(F)cc5)CC4)ncnc32)c(C)c1`, the z-score was -0.0734.

Turning to `CCOC(=O)/C=C/C(=O)Nc1nccs1`, the z-score was -0.174.

Compound `Cc1ccc(OCC(=O)NNc2c3ccccc3nc3ccccc23)cc1` displayed a z-score of 0.233.

Compound `CCOC(=O)c1c(NC(=O)Cc2cccs2)sc(C(=O)N2CCCCC2)c1C` gave a z-score of -0.214.

As for `CC1CN(C(=O)C2CCCN2S(=O)(=O)c2ccc(Cl)cc2)CC(C)O1` (configuration not stated), the z-score turned out to be 0.21.

As for `O=C(O)CC1NC(=S)N(c2ccccc2)C1=O` (configuration not stated), the z-score was determined as 0.429.

Regarding `O=C(Nc1nsc(-c2ccccc2)n1)c1ccncc1`, the z-score is -0.163.

`O=C(CCS(=O)(=O)c1ccc(Br)cc1)N1CCN(c2ccccc2Cl)CC1` gave a z-score of 0.163.

`CN(Cc1n[nH]c(=S)n1C)S(=O)(=O)c1ccccc1` displayed a z-score of 0.0105.

For the compound `C=CCN1C(=O)CSc2ccc(C(=O)N3CCC(C)CC3)cc21`, the z-score is -0.347.

In turn, `Cc1cc(Cl)ccc1Oc1ncc(-c2ccc(Cl)cc2)cn1` returned a z-score of -0.0298.

For `Cc1ccc2nc(SCC(=O)Nc3nnc(SCC(N)=O)s3)[nH]c2c1`, the z-score was -0.135.

As to `CCOc1ccc(S(=O)(=O)Nc2ccc(S(=O)(=O)N3CCCCC3)cc2)cc1`, the z-score was -0.74.

Compound `O=C(Cn1c(CSc2ccccc2)nc2ccccc21)Nc1ccccc1` displayed a z-score of -0.348.

In turn, `CCCCC(=O)Nc1cccc(NC(=S)NC(=O)C(C)C)c1` displayed a z-score of -0.287.

In the case of `O=C(c1ccc(Cl)s1)N1CCOCC1`, the z-score worked out at 0.143.

`O=C(NCc1ccco1)c1cc2ccc(O)cc2oc1=O` yielded a z-score of 0.307.

For `C/C=C/c1ccc(OCCOCCOc2cccc3cccnc23)c(OC)c1`, the z-score is -0.356.

In turn, `CC(C)(Oc1ccc(Cl)cc1)C(=O)NC1CCSC1=O` (configuration not stated) gave a z-score of -0.405.

For `O=C(CC1SC(=NCCc2ccccc2)N(/N=C/c2cccs2)C1=O)Nc1ccc(Cl)cc1` (configuration not stated), the z-score is 0.658.

Take `CC(=O)CCc1c(C)nc2ccc(C(=O)O)cc2c1Cl`: the z-score amounted to 0.493.

As for `O=[N+]([O-])c1ccccc1N/N=C\c1ccccc1Cl`, the z-score was -0.0268.

With `Cn1c(=O)[nH]c(=O)c2c1nc1n2CCCN1CCc1ccccc1`, the z-score worked out at 0.412.

Compound `CCCCn1c(=O)c2c(O)cc(=O)oc2c2ccccc21` had a z-score of 1.03.

In turn, `COc1ccc(C2SCC(=O)N2C)cc1` (configuration not stated) showed a z-score of -0.107.

In the case of `Cc1ccccc1C(=O)N1CCC(C(=O)Nc2cccc(F)c2)CC1`, the z-score was determined as 0.161.

As to `CCc1noc(C)c1C(=O)Nc1sc(C(=O)N(C)C)c(C)c1C(=O)OC`, the z-score came out at 0.608.

Take `Cc1nc2ccccc2c2oc(C(=O)N3CCc4ccccc4C3)cc12`: the z-score is -0.52.

Take `CSc1ccccc1NC(=O)c1ccoc1C`: the z-score was -0.082.

`CCN(CCNC(=O)c1cccc(N2CCCC2=O)c1)c1ccccc1` gave a z-score of 0.476.

Take `Cc1cc(NC(=O)c2cc(-c3ccncc3)nc3c(C)cccc23)no1`: the z-score was 0.312.

Regarding `COc1ccc(S(=O)(=O)NCc2ccccn2)cc1Cl`, the z-score was found to be 0.175.

With `COc1ccccc1-c1nnc(SCC(=O)Nc2ccc(S(N)(=O)=O)cc2)n1C`, the z-score turned out to be 0.221.

Take `Cc1nnc2n(CCc3ccccc3)c(=O)c3c4c(sc3n12)CCCC4`: the z-score was -0.258.

`CC(OC(=O)c1nc(-c2ccccc2)n(-c2ccccc2)n1)C(=O)Nc1cc(Cl)cc(Cl)c1` (configuration not stated) showed a z-score of -0.303.

In the case of `CN(C)c1ccc(C(=O)OCC(=O)NC2CCCCC2)cc1`, the z-score was -0.263.

Turning to `CC(NC(=O)c1ccc(Cl)cc1)c1nnc(SCc2ccc([N+](=O)[O-])cc2)n1C` (configuration not stated), the z-score is -0.159.

Compound `O=C(OCc1ccc2c(c1)OCO2)c1cccc(S(=O)(=O)N2CCCCC2)c1` displayed a z-score of -0.201.

In the case of `O=C(COC(=O)CNC(=O)c1ccccc1F)NCCC1=CCCCC1`, the z-score was -0.262.

`CCOC(=O)C1CCCN(c2nc3ccccc3nc2C(C#N)C(=O)OC(C)COC)C1` (configuration not stated): the z-score was -0.408.

Turning to `COc1ccc(-c2nnc(SCc3cccnc3)o2)cc1`, the z-score was -0.339.

Regarding `O=C(COc1ncnc2sccc12)N1CCc2ccccc2C1`, the z-score amounted to 0.0441.

On to `CCCCNC(=O)COC(=O)c1cc(F)c(F)cc1Cl`, for which the z-score was determined as 0.143.

Take `COc1ccc(-c2cc(=O)oc3cc(OCC(=O)c4cccc([N+](=O)[O-])c4)ccc23)cc1`: the z-score amounted to 0.084.

The compound `CCOC(=O)c1[nH]c2ccccc2c1NC(=O)c1nonc1C` showed a z-score of -0.448.

The compound `CCCN1Cc2cccc(C(=O)N3CCN(c4ccc(F)cc4)CC3)c2C1=O` gave a z-score of -0.326.

The compound `Cc1ccc2c(c1)c1c(n2C)-c2[nH]ncc2CC1` returned a z-score of 0.0356.

Take `CC1CCCN(c2ccc(C(=O)NCc3ccc4c(c3)OCO4)cc2[N+](=O)[O-])C1` (configuration not stated): the z-score was 0.508.

For `O=S(=O)(NCC(c1ccco1)N1CCN(c2ccc(F)cc2)CC1)c1ccc2c(c1)OCCO2` (configuration not stated), the z-score was -0.147.

`CC(=O)c1ccc(-n2nnnc2SCC(=O)NNC(=O)c2ccco2)cc1` showed a z-score of -0.102.

For the compound `N/C(=N\OC(=O)Cc1cccc2ccccc12)c1ccccn1`, the z-score worked out at 0.135.

Turning to `Cn1cc(S(=O)(=O)CC(=O)Nc2ccc3c(c2)OCCO3)c2ccccc21`, the z-score is -0.578.

In turn, `CC1Cc2ccccc2N1C(=O)CCNS(=O)(=O)c1ccc2c(c1)CCC(=O)N2` (configuration not stated) displayed a z-score of -0.0721.

In the case of `Cc1cc(C)c(C#N)c(Nc2ccccc2)n1`, the z-score is -0.364.

`CC(C)(C)OC(=O)N1CCC(C(=O)N[C@H](Cc2ccccc2)C(=O)O)CC1` came in with a z-score of -0.194.

`CN(C)S(=O)(=O)c1cccc(C(=O)Nc2cccnc2)c1` showed a z-score of -0.903.

On to `N#Cc1c(SCc2ccccc2)nc(N2CCOCC2)c2c1CCCC2`, for which the z-score is -0.279.

In the case of `COc1ccc2nc(NC(=O)c3ccc(-n4nc(C)cc4C)cc3)sc2c1`, the z-score was found to be 0.353.

The compound `CCc1nnc(NS(=O)(=O)c2ccc(NC(=S)NC(=O)/C=C/c3ccc(F)cc3)cc2)s1` displayed a z-score of -0.454.

In the case of `Cc1cc(Nc2ccccc2)n(C(=O)c2ccc(N)cc2)n1`, the z-score came to 0.288.

`COc1ccccc1-c1cc(C(F)(F)F)nc(N2CCOCC2)n1` came in with a z-score of 0.856.

The compound `Cn1c(=O)c2c(ncn2CC(=O)Nc2nnc(Cc3ccccc3)s2)n(C)c1=O` came in with a z-score of 0.201.

On to `O=C(CNC1=NCCC1)c1ccc2c(c1)OCCO2`, for which the z-score is -0.257.

For `C(#Cc1ccccc1)C[N+]1(CC#Cc2cccc3ccccc23)CCCC1`, the z-score was -0.149.

`Cc1cc(N2CCCC2)nc(SCC(=O)c2ccccc2)n1` registered a z-score of 0.0585.

`Cc1ccc(NC(=O)CCN2CCN(C/C=C/c3ccccc3)CC2)cc1` came in with a z-score of 0.316.
